Data reported in PubChem BioAssay AID686978 (National Center for Advancing Translational Sciences (NCATS), 2013).
In all, about 420,000 compounds went through this assay and about 64,000 (15%) were called active. Inconclusive means that the source gave no clear call. Such entries were picked first, then a sample of the others. The call rests on the fitted dose curve; in most records, active means well fitted inhibition curve with a large enough effect; inconclusive means small, poorly fitted or top-dose-only effect; inactive means flat fitted curve, though single readings scatter. No potency is given beside an inconclusive call; the fits are too rough.
On the % scale 0 is the no-effect control and ±100 the full control effect; potency means the concentration at half of the fitted maximal effect; tags describe the fitted curve by direction and shape.

Experiment: qHTS for Inhibitors of human tyrosyl-DNA phosphodiesterase 1 (TDP1): qHTS in cells in absence of CPT; further: nearly all actives have a fitted effect of over 55% in size
Settings: DT40 Tdp1-/- hTDP1 cells, no CPT, ATP luminescence, 48 h; activity change, negative = growth inhibition: at 46.2 µM (top of the series) unless noted
Outline: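 Stably hTDP1-transfected Tdp1-null chicken DT40 cells were treated with library compounds minus camptothecin and grown for at least 48 hr at 37 °C, after which cellular ATP was quantified by luminescence.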
For `CN(C)/C=C/C(=O)c1ccc2noc(-c3ccccc3)c2c1`, the Potency was inconclusive [inhibitor, full curve]. In the case of `Nc1nc(-c2ccc3c(c2)NC(=O)CO3)cs1`, the “activity change, negative = growth inhibition” value is reported as inactive: -25.1%. In the case of `Nc1cccc2c1C(=O)N(Cc1nnc(-c3ccccc3Br)o1)C2=O`, the “activity change, negative = growth inhibition” value is reported as inactive: -15.5%. For `O=C(CSc1nnnn1-c1cccnc1)NCc1cccs1`, the “activity change, negative = growth inhibition” value was inactive: -1.64%. In the case of `CCCCCCN1C[C@H](O)[C@@H](n2cc(COC(=O)c3ccccc3)nn2)C[C@@H]1c1ccccc1`, the “activity change, negative = growth inhibition” value is reported as inactive: -4.95%. With `CC(C)(C)c1ccc(OCC(=O)N/N=C/C2CC=CCC2)cc1` (configuration not stated) the Potency was inconclusive [inhibitor, partial curve, poor fit]. With `Cc1ccc(C(=O)CCC(=O)Nc2ccc(C)cc2C)cc1` the “activity change, negative = growth inhibition” value was inactive: -0.849%. In the case of `CC(SCc1ccccc1)C(=O)Nc1ccc2c(c1)OCO2` (configuration not stated), the Potency is reported as inconclusive [inhibitor, single point]. With `CCc1ccccc1NC(=O)N1CCC(CN2CCc3ccccc3C2)CC1` the activity change, negative = growth inhibition was inconclusive: -31.5% [inhibitor]. With `Clc1ccc(CN2CCN(c3ccccc3)CC2)cn1` the “activity change, negative = growth inhibition” value was inactive: 9.66%. With `CC(=O)NCCc1nc2ccccc2n1CCCCOc1ccccc1` the Potency was active: 13 µM. With `CCCCCCNS(=O)(=O)c1ccccc1Br` the Potency was inconclusive [inhibitor, single point]. In the case of `Cc1ccsc1CN(C)C(=O)C1CCC(=O)N(CCc2cccc(F)c2)C1` (configuration not stated), the “activity change, negative = growth inhibition” value is reported as inactive: 1.8%. In the case of `CC1CCCN(C(=O)c2ccc([N+](=O)[O-])o2)C1` (configuration not stated), the “activity change, negative = growth inhibition” value is reported as inactive: -20.2%. For `CCn1c(SCC(=O)N/N=C/C(C)=C/c2ccco2)nnc1-c1ccccc1`, the Potency was inconclusive [inhibitor, single point]. For `Cc1cc(C)c(S(=O)(=O)Nc2ccccc2-c2ccccc2)c(C)c1`, the Potency was active: 20.6 µM. In the case of `O=S(=O)(NCCCc1ccccc1)c1cccc2nsnc12`, the Potency is reported as inconclusive [inhibitor, partial curve]. For `N#Cc1c(N)n(CCCN2CCOCC2)c2nc3ccccc3nc12`, the “activity change, negative = growth inhibition” value was inactive: -24.9%. With `CCOc1ccc(CC(=NCCO)C2=C(O)CC(C)(C)CC2=O)cc1OCC` the “activity change, negative = growth inhibition” value was inactive: -5.95%. For `Cc1nn(-c2ccccc2)c(C)c1/C=N/NC(=O)CSc1nnc(SCc2ccccc2Cl)s1`, the Potency was inconclusive [inhibitor, single point]. For `CCCn1c2ccccc2c2nnc(SCC(=O)Nc3cc(C)on3)nc21`, the Potency was inconclusive [inhibitor, single point]. With `COc1ccc(C(=O)Cn2c(NCCO)nc3ccccc32)cc1OC` the “activity change, negative = growth inhibition” value was inactive: 0.737%. In the case of `CCc1ccccc1NC(=O)C(C)n1nc([N+](=O)[O-])c(Br)c1C` (configuration not stated), the Potency is reported as inconclusive [inhibitor, partial curve]. With `CC1Cc2cc(S(=O)(=O)N3CCC(C(=O)N(C)Cc4ccco4)CC3)ccc2N1C(=O)C1CCC1` (configuration not stated) the Potency was inconclusive [inhibitor, single point]. For `COc1ccc(-n2nnc3c(SCC(=O)N4CCCc5ccccc54)ncnc32)cc1`, the “activity change, negative = growth inhibition” value was inactive: -18.6%. With `CCOC(=O)C1=CN(Cc2cccc(F)c2)S(=O)(=O)N(C)C1c1cccc(OC)c1` (configuration not stated) the Potency was inconclusive [inhibitor, single point]. For `CCC(Sc1nc(=O)cc(N)n1-c1cccc(C)c1)C(=O)Nc1cc(C)on1` (configuration not stated), the Potency was inconclusive [inhibitor, single point]. With `CCc1ccccc1NC(=O)CN(C)C(=O)CSc1nn(-c2ccccc2)c(=S)s1` the “activity change, negative = growth inhibition” value was inactive: -23.2%. In the case of `O=[N+]([O-])c1ccc(N2CCN(c3ccc(O)cc3)CC2)cn1`, the Potency is reported as inconclusive [inhibitor, single point]. In the case of `Cc1noc(C)c1-c1ccc2ncnc(N(C)C)c2c1`, the Potency is reported as inconclusive [inhibitor, partial curve, poor fit]. In the case of `Cc1ccccc1Cn1cc(CCC(=O)N2CCOCC2)c2ccccc21`, the Potency is reported as inconclusive [inhibitor, single point]. With `CCc1ccc(-c2csc(-c3c[nH]c4ccccc34)n2)cc1` the Potency was inconclusive [inhibitor, single point]. For `CN1C2CCC1CC(NC(=O)CSc1ccc(C(C)(C)C)cc1)C2` (configuration not stated), the Potency was inconclusive [inhibitor, partial curve]. With `COc1ccc(CCNC(=O)c2nnn(CC(=O)Nc3cccc(F)c3)c2N)cc1OC` the “activity change, negative = growth inhibition” value was inactive: -0.641%. For `CCOC(=O)N1CCN(C(=O)CSc2ccc3nnc(CCNC(=O)c4ccc(OC)cc4)n3n2)CC1`, the Potency was inconclusive [inhibitor, single point]. In the case of `Cc1cc(C)c(NS(=O)(=O)c2ccc3c(c2)n(C)c(=O)n3C)c(C)c1`, the “activity change, negative = growth inhibition” value is reported as inactive: -3.69%. With `CCCSc1nc(=O)n2cccc(C)c2n1` the “activity change, negative = growth inhibition” value was inactive: -12.1%. For `OC[C@@H]1CN(Cc2ccncc2)C[C@H](n2cnc3c(N4CCOCC4)ncnc32)O1`, the Potency was inconclusive [inhibitor, single point]. For `O=C(O)C1C2CCC(C2)C1C(=O)Nc1cccc([N+](=O)[O-])c1` (configuration not stated), the “activity change, negative = growth inhibition” value was inactive: -0.765%. In the case of `COc1cc(OC)c(C(=O)NC2CCCCCC2)cc1OC`, the Potency is reported as inconclusive [inhibitor, full curve, poor fit]. In the case of `CCN(CC)S(=O)(=O)c1ccc(N2CCOCC2)c(NC(=O)COc2ccccc2)c1`, the Potency is reported as inconclusive [inhibitor, single point]. In the case of `Cc1csc(NC(=O)/C=C/c2ccc3c(c2)OCO3)n1`, the Potency is reported as inconclusive [inhibitor, single point]. With `Cc1ccc2[nH]cc(C(O)c3c[nH]c4ccc(C)cc34)c2c1` the Potency was inconclusive [inhibitor, single point]. With `O=C(c1ccco1)N1CCN(C(=O)c2ccccc2OC(=O)C23CC4CC(CC(C4)C2)C3)CC1` the Potency was inconclusive [inhibitor, single point]. With `FC(F)(F)c1cc(CCN2C(=S)NC[C@@H]2CC2CCCCC2)cc(C(F)(F)F)c1` the Potency was inconclusive [inhibitor, single point]. In the case of `Oc1ccc(C2=CSC3=NCCN23)cc1O`, the “activity change, negative = growth inhibition” value is reported as inactive: -17.9%. In the case of `CCOC(=O)c1ccc(NC(=O)CC2Sc3ccc(C(F)(F)F)cc3NC2=O)cc1` (configuration not stated), the Potency is reported as inconclusive [inhibitor, partial curve]. In the case of `CC(=O)Nc1cccc(NC(=O)Cc2nc(-c3ccccc3)sc2-c2ccc(C)cc2)c1`, the Potency is reported as inconclusive [inhibitor, single point]. In the case of `O=C(NCc1ccccc1)c1onc(CSc2ccc(Cl)cc2)c1C(=O)NCC1CC1`, the Potency is reported as inconclusive [inhibitor, single point]. With `O=C(CN1C(=O)NC(c2ccc(F)cc2)C1=O)Nc1ccc2c(c1)OCCO2` (configuration not stated) the “activity change, negative = growth inhibition” value was inactive: -12.8%. For `CCCCC(CC)CNC(=O)CN(C)S(=O)(=O)c1ccc2c(c1)c(=O)n(C)c(=O)n2C` (configuration not stated), the Potency was inconclusive [inhibitor, single point]. In the case of `Oc1ccc(/C=N/Nc2cc(N3CCCC3)nc(N3CCCC3)n2)cc1`, the Potency is reported as inconclusive [inhibitor, single point]. In the case of `CCOC(=O)N1CCC(N2Cc3cccc(C(=O)NCc4ccccc4OC)c3C2=O)CC1`, the Potency is reported as inconclusive [inhibitor, single point]. With `Cc1occc1C(=O)NNC(=S)NCC(C)C` the “activity change, negative = growth inhibition” value was inactive: -1.82%. In the case of `Cc1nn(C)c2c1c(-c1ccccc1)cc(=O)n2Cc1ccccc1Cl`, the Potency is reported as inconclusive [inhibitor, single point]. For `COc1ccccc1Nc1ncnc2ccc(C)cc12`, the Potency was inconclusive [inhibitor, single point]. For `Cc1cccc(CN2CCCC(C(=O)c3ccc4c5c(cccc35)CC4)C2)n1` (configuration not stated), the Potency was active: 13 µM. For `O=C1CC(SC(=Nc2ccccc2)Nc2ccccc2)C(=O)N1c1ccc(Cl)cc1` (configuration not stated), the Potency was inconclusive [inhibitor, single point]. For `CC1(C)CC2CC(C)(CN2C(=O)COC(=O)c2cncc(Br)c2)C1` (configuration not stated), the “activity change, negative = growth inhibition” value was inactive: -14.4%. With `NC(Cc1ccc(Cl)cc1)c1csc(Nc2ccc(S(N)(=O)=O)cc2)n1` (configuration not stated) the Potency was active: 9.2 µM. In the case of `CC(C)CCNC(=O)C(c1cccnc1)N(Cc1ccccc1)C(=O)Cn1nnc2ccccc21` (configuration not stated), the “activity change, negative = growth inhibition” value is reported as inactive: -1.04%. For `CC1(C)CC(=O)C2=C(C1)OC1=C(C(=O)CC(C)(C)C1)C2c1cccc([N+](=O)[O-])c1`, the Potency was active: 16.4 µM. With `COc1ccc(CCNC(=O)Cn2nc(C)n3c(cc4cc(F)ccc43)c2=O)cc1OC` the “activity change, negative = growth inhibition” value was inactive: 4.95%. For `COc1ccccc1NS(=O)(=O)c1ccc2oc(SCC(=O)N3CCNC3=O)nc2c1`, the Potency was inconclusive [inhibitor, partial curve]. For `Cc1ccc(Nc2nc(N)nc(CN3CCN(Cc4ccc5c(c4)OCO5)CC3)n2)cc1`, the Potency was active: 18.4 µM. For `O=C(CN1C(=O)C2C3C=CC(C3)C2C1=O)Nc1ccc(S(=O)(=O)N2CCCCC2)cc1` (configuration not stated), the Potency was inconclusive [inhibitor, single point]. In the case of `COc1ccc(S(=O)(=O)N2CCN(C(=O)c3cc(-c4ccccc4OC)n[nH]3)CC2)cc1`, the Potency is reported as inconclusive [inhibitor, single point]. With `CC1CCCN(C(=O)COC(=O)/C=C/c2ccc(C(F)(F)F)cc2)C1` (configuration not stated) the Potency was inconclusive [inhibitor, single point]. In the case of `COc1ccc(Oc2cn[nH]c2-c2ccc(OCC(=O)NN)cc2O)cc1`, the “activity change, negative = growth inhibition” value is reported as inactive: -25.6%. In the case of `COc1cccc(C(=O)Nc2cccc(NC(=O)c3ccc(Cl)cc3Cl)c2)c1`, the Potency is reported as inconclusive [inhibitor, single point]. With `CC(NC(=O)c1cccc(Cl)c1)C1CC2CCC1C2` (configuration not stated) the “activity change, negative = growth inhibition” value was inactive: -21.5%. In the case of `O=S(=O)(NCc1c(Cl)cccc1Oc1ccccc1)c1ccccc1`, the Potency is reported as inconclusive [inhibitor, single point].
